From PubChem BioAssay AID1721 (National Center for Advancing Translational Sciences (NCATS), 2009)
In all, about 290,000 compounds went through this assay and about 1,100 (0.38%) were called active. Inconclusive means that the source gave no clear call. Such entries were picked first, then a sample of the others. The call rests on the fitted dose curve; in most records, active means well fitted inhibition curve with a large enough effect; inconclusive means small, poorly fitted or top-dose-only effect, or another doubt; inactive means no such curve, though single readings can be large or run the other way. A potency beside an inconclusive call is a rough fit, not a confirmed value.

molecular target: Pyruvate kinase (Leishmania mexicana) (UniProt Q27686); assay: qHTS Assay for Inhibitors of Leishmania Mexicana Pyruvate Kinase (LmPK); settings: purified LmPK, Kinase-Glo ATP luminescence, 1 h; activity change, negative = inhibition: at 57.5 µM (top of the series) unless noted
Chain of UniProt Q27686 (Q27686 whole entry, looked up): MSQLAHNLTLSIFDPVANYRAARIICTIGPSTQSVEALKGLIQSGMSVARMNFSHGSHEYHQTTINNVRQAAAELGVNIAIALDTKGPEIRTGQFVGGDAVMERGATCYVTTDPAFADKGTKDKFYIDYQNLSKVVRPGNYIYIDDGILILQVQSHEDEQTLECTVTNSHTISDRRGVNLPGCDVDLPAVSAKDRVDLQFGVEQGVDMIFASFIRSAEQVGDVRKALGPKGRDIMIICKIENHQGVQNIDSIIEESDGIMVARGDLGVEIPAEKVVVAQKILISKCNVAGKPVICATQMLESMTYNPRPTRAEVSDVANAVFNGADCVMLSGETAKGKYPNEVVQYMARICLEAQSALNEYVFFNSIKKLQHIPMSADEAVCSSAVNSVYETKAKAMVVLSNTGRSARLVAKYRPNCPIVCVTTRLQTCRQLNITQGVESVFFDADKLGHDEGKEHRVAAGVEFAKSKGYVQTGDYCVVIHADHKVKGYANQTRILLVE
How it was run: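 Screened at intermediate enzyme activity to detect both inhibitors and activators: LmPK at 0.1 nM, with a 0.5 nM enzyme column as activation reference. PEP 0.5 mM, ADP 0.1 mM; ATP detected by luminescence after 1 h.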
On the % scale 0 is the no-effect control and ±100 the full control effect; potency means the concentration at half of the fitted maximal effect; tags describe the fitted curve by direction and shape.

SMILES	Potency	activity change, negative = inhibition
COc1ccc(-c2n[nH]c(=S)n2Cc2ccccc2)cc1OC	inconclusive: 39.8 µM [falling, single point]	–
COc1cc(/C=C2\SC(c3ccc(C)cc3)=NC2=O)cc(OC)c1O	inconclusive: 15.8 µM [falling, partial curve]	–
Cc1nc(NC(=O)COC(=O)C(NC(=O)c2ccco2)C(C)C)c(Cl)cc1Cl (configuration not stated)	–	inactive: 9.69%
O=c1c2ccccc2nnn1CSc1nnc2sc3ccccc3n12	inconclusive: 15.8 µM [falling, partial curve]	–
O=C(/C=C/Nc1ccc(Br)cc1F)c1ccco1	inconclusive: 10 µM [falling, partial curve]	–
CN(C)c1ccc(/C=N/NC(=O)c2ccco2)cc1	active: 15.8 µM	–
CC(=O)NC1Sc2ccccc2N=C1c1ccccc1 (configuration not stated)	inconclusive: 35.5 µM [falling, single point]	–
Cc1cc(NC(=O)Nc2ccccc2[N+](=O)[O-])no1	inconclusive: 31.6 µM [falling, single point]	–
C/C(=N\OC(=O)c1ccc(Br)cc1)c1ccccn1	inconclusive: 5.01 µM [falling, partial curve]	–
CN(C)c1ccc(NC(=O)c2cnsn2)cc1	inconclusive: 22.4 µM [falling, partial curve]	–
Cc1noc(N)c1C(=O)Nc1ccc(C(C)(C)C)cc1	inconclusive: 28.2 µM [falling, partial curve]	–
CCn1c(CSc2nc3ccccc3s2)n[nH]c1=S	inconclusive: 12.6 µM [falling, partial curve]	–
CCCOc1ccc(-c2cn3ccccc3n2)cc1	inconclusive: 35.5 µM [falling, single point]	–
O=C1c2ccccc2C(=O)C1c1ccnc2ccccc12	active: 7.08 µM	–
COc1ccc(/C=N/NC(=O)c2[nH]ncc2Br)c(OC)c1	inconclusive: 12.6 µM [falling, partial curve]	–
CCCC(=O)NCc1cc(-c2nn(C)c(=O)c3ccccc23)ccc1OC	–	inactive: -3.4%
CCc1ccc(OCCCOc2ccc(C=O)cc2)cc1	–	inactive: -17.6%
O=C(/C=C/c1cccs1)N1CCc2ccccc21	active: 14.1 µM	–
O=C(Nc1nnc(C2CC2)s1)c1ccco1	inconclusive: 22.4 µM [falling, single point]	–
COc1cccc(N2CCN(C(=S)Nc3ccccc3OC)CC2)c1	–	inactive: 7.72%
Cc1oc(-c2ccc3c(c2)OCCO3)cc1C(=O)O	active: 14.1 µM	–
O=C(N/N=C/c1ccccc1OCC(=O)N1CCCC1)C(=O)Nc1ccccc1F	inconclusive: 17.8 µM [falling, partial curve]	–
